Each structure is given as a SMILES string. Out of some 150,000 compounds screened, about 540 (0.36%) showed an effect of 50% or more. The list shows a part of the results.

54 compounds from ChEMBL document CHEMBL4888484, “Replenishing the malaria drug discovery pipeline: Screening and hit evaluation of the MMV Hit Generation Library 1 (HGL1) against asexual blood stage Plasmodium falciparum ,using a nano luciferase reporter read-out” (2022) can be followed below.

In this assay the test system is Plasmodium falciparum. Nature of the assay: Primary screen in NF54 nanoGlo assay, in single point, at 2uM, 72h; a lower Z score goes with more inhibition. It is filed as functional, Erythrocyte. The note with it: timepoint 72 hour.
Broadly, the % Inhibition is the drop in the measured response relative to a control, in per cent. Consider `O=C1c2ccccc2N[C@H](c2cnc(N3CCCC3)nc2)N1CC(F)(F)F`, for which the “% Inhibition” value is listed as -12% and the Z score is 1.18.

Take `CCC(C)(C)NS(=O)(=O)c1cccs1`: the “% Inhibition” value was -8% and the Z score turned out to be 0.99.

For the compound `Cc1cncc(C(=O)OCCN(C)CC(F)(F)F)c1`, the “% Inhibition” value was -2% and the Z score is given as 0.16.

Regarding `CC(C)(C)N1CC[C@H](NC(=O)NCc2nc(-c3ccccc3F)cs2)C1`, the “% Inhibition” value is reported as 0% and the Z score is given as -0.03.

With `COc1ccc(NC(=O)c2sc(Nc3cc(C)ccn3)nc2C)cc1OC`, the “% Inhibition” value is on record as -2% and the Z score came to 0.32.

Turning to `Cn1nc(C(=O)N2CCCC2(C)C)c(O)c1C(=O)N1CCCC1(C)C`, the “% Inhibition” value amounted to 0% and the Z score came to 0.01.

In the case of `Cc1ncc(CS(=O)(=O)CC(=O)NCc2sccc2C)s1`, the “% Inhibition” value is -7% and the Z score is given as 1.13.

Regarding `Cc1nc(NC(=O)[C@H]2CC2(Cl)Cl)ccc1Br`, the “% Inhibition” value is -3% and the Z score is given as 0.49.

Regarding `Cc1nnc([C@H](C)Nc2ccc(OCc3ccccc3)nc2)o1`, the “% Inhibition” value is listed as -11% and the Z score is 1.39.

Take `Fc1cncnc1N1CCCN(c2ccc3nncn3n2)CC1`: the “% Inhibition” value is on record as 13% and the Z score is listed as -2.28.

With `Cn1cc(C(NC(=O)c2cc3ncccn3n2)[C@H]2C[C@H](O)C2)cn1` (stereo partly drawn), the “% Inhibition” value is on record as -13% and the Z score came out at 2.13.

For `CC(C)c1ccccc1OCC(O)CN1CCCN2CCCC2C1` (stereo not drawn), the “% Inhibition” value is 2% and the Z score is reported as -0.3.

Consider `O=c1c2ccccc2nnn1C[C@H]1CC[C@H](C(=O)Nn2cnnc2)CC1`, for which the “% Inhibition” value amounted to 1% and the Z score is given as -0.19.

For the compound `Cn1cc(-c2cc(-c3cnn(C)c3)n(S(=O)(=O)c3cccs3)n2)cn1`, the “% Inhibition” value is 34% and the Z score is -3.8.

As to `CCOC(=O)C1=C(C(=O)OCC)SC(=C2C(=S)C(C)(C)N(C(C)=O)c3ccccc32)S1`, the “% Inhibition” value is -4% and the Z score was determined as 0.45.

Regarding `CCc1nc(C)ccc1OCc1ncc(C)o1`, the “% Inhibition” value is given as -7% and the Z score was found to be 1.05.

On to `Cn1ccnc1[C@@H](NC(=O)c1cc(C2CC2)no1)C1CC1`, for which the “% Inhibition” value was -12% and the Z score worked out at 1.43.

For the compound `O=C1CCC(C(=O)N2CCCCCC2C=Cc2ccccc2)N1` (stereo not drawn), the “% Inhibition” value is -11% and the Z score is on record as 1.83.

In the case of `CC(C)Cc1noc(CN(C)Cc2ccc3c4c(cccc24)C(=O)OC3)n1`, the “% Inhibition” value was -11% and the Z score came out at 1.86.

Consider `Cc1nc(Nc2ccccn2)cc(C(F)(F)F)n1`, for which the “% Inhibition” value is -6% and the Z score is reported as 0.67.

For the compound `Cc1cscc1NC(=O)N1CCCS(=O)(=O)C[C@H]1C1CC1`, the “% Inhibition” value is listed as -12% and the Z score is 1.91.

Regarding `Cc1cc(-n2cncn2)ccc1C(=O)N1CCC(N2CCCCC2=O)CC1`, the “% Inhibition” value is reported as -11% and the Z score is on record as 2.01.

Take `COc1nccnc1N[C@H]1CCOC[C@@H]1OCc1ccccn1`: the “% Inhibition” value is -10% and the Z score is 1.67.

On to `CC(C)C(=O)Nc1ccc2c(c1)cc(C(=O)NCc1ccccc1)n2Cc1ccc(C(F)(F)F)cc1`, for which the “% Inhibition” value was -5% and the Z score came out at 0.66.

On to `CC(C)N1CCN(S(=O)(=O)c2cc(-c3nnc(C4CCCC4)o3)co2)CC1`, for which the “% Inhibition” value is listed as -2% and the Z score is 0.23.

For the compound `COCc1nc(Cc2noc([C@@]3(C)CCNC(=O)C3)n2)cs1`, the “% Inhibition” value came out at 1% and the Z score was -0.08.

Take `CN(CCN(C)C(=O)C1CC2CCC1O2)C(=O)c1cc(C2CCCC2)no1` (stereo not drawn): the “% Inhibition” value is given as -4% and the Z score came to 0.56.

In the case of `CCNc1nc(C)cc(OC(F)F)n1`, the “% Inhibition” value is -6% and the Z score is 1.18.

Turning to `COC(=O)c1ccc(N[C@@H](C)c2ccc(OC)c(F)c2)nn1`, the “% Inhibition” value is on record as -10% and the Z score is 1.85.

As for `O=C(Nc1ccc(-c2cc3c(o2)CCN(C(=O)c2ccc4ccccc4c2)C3)cc1)c1ccc(Cl)cc1Cl`, the “% Inhibition” value was determined as 4% and the Z score is -0.51.

For `C[C@@H](CNC(=O)c1cc[nH]n1)Oc1ccc(F)cc1`, the “% Inhibition” value was 7% and the Z score is -0.94.

For `c1ccc2c(c1)C[C@H](Cc1ccc(-n3ccnc3)nn1)CO2`, the “% Inhibition” value is recorded as 3% and the Z score is listed as -0.64.

Consider `Cc1ccc(NC(=O)c2nc(-n3ccnc3)ncc2Cl)cc1Cl`, for which the “% Inhibition” value is listed as -10% and the Z score is on record as 1.34.

Consider `CC(C)CC(=O)N(Cc1ccc(Br)o1)[C@H]1CCS(=O)(=O)C1`, for which the “% Inhibition” value was 1% and the Z score was -0.06.

`CC(C)C1(CNC(=O)[C@H]2CCCN(C3CCN(Cc4ccncc4)CC3)C2)CC1`: the “% Inhibition” value is given as -11% and the Z score was found to be 1.51.

In the case of `O=C(NCCn1nc(C2CC2)ccc1=O)c1ccncc1F`, the “% Inhibition” value is recorded as 6% and the Z score is reported as -0.77.

For `CC1CCCN(C(=O)C(C)NC(=O)C(C)(C)C)C1` (stereo not drawn), the “% Inhibition” value is 2% and the Z score is given as -0.4.

For the compound `O=C(NCc1ccc(Nc2ccncc2)cc1)[C@H]1CCCO1`, the “% Inhibition” value is -9% and the Z score is recorded as 1.24.

As to `C[C@@H](c1ccc(-c2cccc(-n3cnnc3)c2)cc1)N(C)C`, the “% Inhibition” value is recorded as 6% and the Z score is -0.76.

As for `CCc1ccc2c(c1)CCN2Cc1nc(C(=O)O)co1`, the “% Inhibition” value turned out to be 1% and the Z score was -0.26.

As to `CN1CCN(c2cc(Br)ccc2C#N)C[C@H]1c1ncc[nH]1`, the “% Inhibition” value was -22% and the Z score is 2.23.

As for `CN(CC1CCC1)c1nnnn1Cc1cnn(CC(F)(F)F)c1`, the “% Inhibition” value is on record as -9% and the Z score was 1.71.

In the case of `CCN(CC)c1ccc(C(=O)OCC(=O)NC(=O)NC)cn1`, the “% Inhibition” value is -14% and the Z score is listed as 1.52.

For the compound `O=C(Cc1c(F)cccc1F)N1CCC(n2c(-c3ccccc3)nc3ccc(F)cc32)CC1`, the “% Inhibition” value is -3% and the Z score turned out to be 0.37.

As to `CC(C)CC(=O)N1CCCN(c2nc(C(F)(F)F)nc3ccccc23)CC1`, the “% Inhibition” value is on record as 6% and the Z score is -0.76.

On to `Cc1ccc2c(c1)N(C(=O)c1c[nH]c(C)cc1=O)CCC2`, for which the “% Inhibition” value is 36% and the Z score is -4.1.

`CO[C@H]1CS(=O)(=O)C[C@@H]1NC(=O)c1sccc1Cl`: the “% Inhibition” value is -2% and the Z score came out at 0.29.

As for `O=C(NCCc1n[nH]c(=O)[nH]1)c1c(F)cc(Br)cc1F`, the “% Inhibition” value is listed as -3% and the Z score came to 0.32.

On to `CN1CCN(c2nc3c(c(N(C)C)n2)CN(C(=O)c2ccc(C(F)(F)F)cc2)CC3)CC1`, for which the “% Inhibition” value came to 5% and the Z score was -0.71.

As for `CN(C[C@H]1CCOC1)C(=O)CCc1ccn(C)n1`, the “% Inhibition” value was -6% and the Z score stood at 1.03.

As to `C[C@H](NC(=O)c1cnn2c(-c3ccc(F)cc3)ccnc12)c1ccccc1`, the “% Inhibition” value was -16% and the Z score is listed as 1.58.

Take `Nc1nnnn1CC(=O)NCc1ccc2c(c1)OCO2`: the “% Inhibition” value is -3% and the Z score came out at 0.53.

On to `CN(C[C@H]1Cc2ccccc2CO1)C(=O)c1cnccn1`, for which the “% Inhibition” value is recorded as -13% and the Z score worked out at 1.49.

For `COc1ccc(F)c(CN2CCC[C@@]3(CCN(C(=O)c4cc(C)[nH]n4)C3)C2)c1`, the “% Inhibition” value is -3% and the Z score was 0.47.
